From PubChem BioAssay (NCATS)
The inconclusive results got no clear call from the source; some entries with a clear call stand among them for comparison. Where the call is inconclusive, the potency comes from a doubtful curve fit. Calls of active or inactive are those of the source. The call rests on the fitted dose curve; in most records, active means well fitted inhibition curve with a large enough effect; inconclusive means small, poorly fitted or top-dose-only effect; inactive means no such curve, though single readings can be large or run the other way.
Potency means the concentration at half of the fitted maximal effect; tags describe the fitted curve by direction and shape.

Experiment: qHTS to identify inhibitors of the type 1 interferon - major histocompatibility complex class I in skeletal muscle: primary screen against the NCATS Mechanism Interrogation Plate v5.0 (MIPE) Libary (AID 1347411); further: nearly all actives have a fitted effect of over 65% in size;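 on activity change, negative = inhibition: plate controls were vehicle for no effect and reference inhibitor for full effect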
Details: iHSKM cells + IFN-b, HiBiT-tagged MHC-I luminescence, 24 h; activity change, negative = inhibition: at 45.8 µM (top of the series)
Source text: Assay Submitter (PI): Travis B. Kinder Ph.D. & James Inglese Ph.D.
Assay Development and Screening Technology Laboratory (ADST)
National Center for Advancing Translational Sciences (NCATS), Rockville, MD
National Institute of Health (NIH), Bethesda, Maryland
Idiopathic inflammatory myopathies, collectively referred to as myositis, are a group of rare autoimmune diseases characterized by skeletal muscle inflammation, weakness, and usually accompanied by systemic pathologies of the skin, lungs, or vasculature. Current immunosuppressive therapies and glucocorticoids are often not curative and are accompanied by harsh side effects, especially in children with juvenile myositis. We initiated a drug repurposing and development program to identify more targeted, less toxic therapeutics to treat myositis. Although its cause is not known, muscle from a subset of patients have an abundance of the inflammatory type 1 interferon (IFN) and a down-stream product major histocompatibility complex class I (MHC class I), which are both thought to contribute to damage and weakness. We conducted quantitative high throughput screening on 6,576 compounds (4,679 unique) through a series of cell-based assays to identify those that inhibit the IFN-stimulated expression of MHC class I in muscle precursor cells (myoblasts). The compound identification and evaluation strategy utilized a primary screen with reporter-tagged MHC class I in genome-engineered myoblasts, ATP content counter screen for viability, HLA-ABC immunofluorescence secondary screen, and HLA-B RT-qPCR tertiary screen.
The primary screen utilized CRISPR/Cas9 genome-engineering of immortalized human myoblasts, C25cl48, where a pro-luminescent reporter HiBit was fused to the C-terminus of endogenous MHC class I allele HLA-B*08:01 (HLA-B HiBit myoblasts). HiBit is an 11 amino acid fragment of NanoLuc luminescent reporter (Promega Corporation), and when complexed to the larger LgBit fragment, the reconstituted enzyme produces light in the presence of furimazine substrate (Schwinn et al., 2018). Briefly, HLA-B HiBit myoblasts were plated into 1536-well plates, treated with 4.0 ng/ml human IFN-beta and 2,480 compounds from the NCATS Mechanism Interrogation Plate v5.0 (MIPE5.0) in an 11-point, 1:3 titration with a high final concentration of 46 uM. After 24 hrs of treatment, cells were assayed by Nano-Glo HiBiT Lytic Detection System (Promega) and luminescence measured by a ViewLux 1430 Ultra HTS (Perkin Elmer).
Schwinn MK, Machleidt T, Zimmerman K, Eggers CT, Dixon AS, Hurst R, Hall MP, Encell LP, Binkowski BF, Wood K V. 2018. CRISPR-Mediated Tagging of Endogenous Proteins with a Luminescent Peptide. ACS Chem Biol 13:467-474. doi:10.1021/acschembio.7b00549
PROTOCOL TABLE (as described by Inglese et al., 2007)
SEQUENCE No. (e.g., 1, 2, 3, etc.); […] (e.g., Cells, Incubation, Reagent, etc.); VALUE; DESCRIPTION
1a; Cells; 5 uL; Use a Multidrop Combi (Thermo Scientific) to seed 300 cells/well into 24 Greiner 1536 well white/solid bottom, high base, TC plates in 5 ul/well of iHSKM growth medium (GM) without dexamethasone into columns 1+2. Add metal lids with gas-exchange holes
1b; Cells; 5 uL; Use a Multidrop Combi (Thermo Scientific) to seed 300 cells/well into 24 Greiner 1536 well white/solid bottom, high base, TC plates in 5 ul/well of iHSKM GM without dexamethasone + 4 ng/ml IFN-b into columns 3 - 48. Add metal lids with gas-exchange holes
2; Incubate; 1 hr; Incubate at 37 C, 5% CO2, 95% RH
3; Compounds; 23 nl; Use Pin Tool (Wako) to transfer DMSO control, ruxolitinib IFN-b inhibitor control [High Concentration = 80 uM final, 16-pt, 1:2 in duplicate], and library compounds in DMSO
4; Incubate; 24 hrs; Incubate at 37 C, 5% CO2, 95% RH
5; Dispense; 2.5 ul; Use BioRAPTR FRD (Beckman Coulter) to add HiBit lytic reagent
6; Incubate; 10 min; Incubate in the dark at ambient temperature for lysis
7; Detector; 5 sec; Measure luminescence with ViewLux 1430 Ultra HTS (Perkin Elmer). […]
With CO[C@@H](C(=O)N1Cc2[nH]nc(NC(=O)c3ccc(N4CCN(C)CC4)cc3)c2C1)c1ccccc1 the Potency was inconclusive: 0.829 µM [inhibitor, full curve].
With CC(C)n1nc(-c2ccc3oc(N)nc3c2)c2c(N)ncnc21 the Potency was inconclusive: 0.0587 µM [inhibitor, full curve].
In the case of Cc1ccn(-c2ccc(-c3ncco3)cc2)c(=O)c1-c1ccc2nc(N)ncc2c1, the Potency is reported as inconclusive: 3.7 µM [inhibitor, full curve].
In the case of COc1cc2nccc(Oc3ccc(NC(=O)Nc4ccc(F)cc4F)c(F)c3)c2cc1OC, the Potency is reported as active: 10.4 µM.
For COc1cc(Nc2nc3ccccc3nc2NS(=O)(=O)c2ccc(NC(=O)c3ccc(C)c(OC)c3)cc2)cc(OC)c1, the Potency was “inactive”.
In the case of CC(C)n1cnc2c(NCCCCCCNC(=O)OC(C)(C)C)nc(NCCO)nc21, the activity change, negative = inhibition is reported as inconclusive: -47.7% [inhibitor].
For CC[C@H](CO)Nc1nc(NCc2ccccc2)c2ncn(C(C)C)c2n1, the Potency was active: 29.4 µM.
With CC#CCn1c(N2CCC[C@@H](N)C2)nc2c1c(=O)n(Cc1nc(C)c3ccccc3n1)c(=O)n2C the Potency was “inactive”.
With COc1cc([C@@H]2c3cc4c(cc3[C@H](O)[C@H]3COC(=O)[C@H]23)OCO4)cc(OC)c1OC the Potency was inconclusive: 0.0234 µM [inhibitor, full curve].
For O=C(NC1CC1)c1cccc(-c2ccc3c(NC(=O)C4CC4)n[nH]c3c2)c1, the Potency was inconclusive: 18.6 µM [inhibitor, partial curve].
For CNC(=O)c1ccc2cc(C3(O)CCn4cncc43)ccc2c1 (stereo not given), the Potency was “inactive”.
For COCCNCCCn1c(C(=O)CF)c(-c2ccc(C)cc2)c2c(N)ncnc21, the Potency was inconclusive: 18.6 µM [inhibitor, partial curve].
For CCCCC[C@H](O)C=C[C@H]1[C@H](O)CC(=O)[C@H]1CC=CCCCC(=O)O, the Potency was inconclusive: 16.5 µM [inhibitor, partial curve, poor fit].
In the case of COc1ccc2c(Oc3ccc(NC(=O)c4c(C)n(CC(C)(C)O)n(-c5ccccc5)c4=O)cc3F)ccnc2c1, the Potency is reported as inconclusive: 13.1 µM [inhibitor, partial curve].
In the case of COc1cc2c(cc1Cc1cccc(Cl)c1F)c(=O)c(C(=O)O)cn2[C@H](CO)C(C)C, the activity change, negative = inhibition is reported as inconclusive: -33.4% [inhibitor].
For CN1N=C(N)c2cn([C@@H]3O[C@H](COP(=O)(O)O)[C@@H](O)[C@@H]3O)c3ncnc1c23, the Potency was inconclusive: 0.829 µM [inhibitor, full curve].
With Cn1cnc2c1c(=O)[nH]c(=O)n2C the Potency was “inactive”.
With CCNC(=O)c1cc2c(-c3cc(OCCN4CCCC4)c(Cl)cc3Cl)nc(N)nc2s1 the Potency was inconclusive: 0.143 µM [inhibitor, full curve].
With COC1CCC(N(C(=O)C2CCC(C)CC2)c2cc(C3=CCCCC3)sc2C(=O)O)CC1 (stereo not given) the Potency was “inactive”.
In the case of NS(=O)(=O)c1ccc(Nc2nc(OCC3CCCCC3)c3[nH]cnc3n2)cc1, the Potency is reported as inconclusive: 16.5 µM [inhibitor, partial curve, poor fit].
For O=C(O)C1=CC(O)C(O)[C@H](O)C1 (stereo not given in full), the Potency was “inactive”.
For CCOc1ccc(Nc2nc(-c3c(C)nc4ccccn34)cs2)cc1, the Potency was inconclusive: 0.0829 µM [inhibitor, full curve].
For C[C@@H](NCCCc1cccc(C(F)(F)F)c1)c1cccc2ccccc12, the Potency was inconclusive: 29.4 µM [inhibitor, partial curve, poor fit].
In the case of COc1ccc2nc3cc(Cl)ccc3c(Nc3cc(CN4CCCC4)c(O)c(CN4CCCC4)c3)c2n1, the Potency is reported as active: 18.6 µM.
With O=c1cc(-c2cccc3c2Sc2ccccc2S3)oc(N2CCOCC2)c1 the Potency was “inactive”.
For CC(C)Nc1cc(C(F)(F)F)cc2nc(NC(=O)c3cccnc3)nn12, the Potency was “inactive”.
With O=C1c2c(O)cc(O)cc2OC(c2ccc(O)c(O)c2)C1O (stereo not given) the Potency was “inactive”.
In the case of OCCN(CCO)c1nc(N2CCCCC2)c2nc(N(CCO)CCO)nc(N3CCCCC3)c2n1, the Potency is reported as “inactive”.
With CC(C)(Cc1ccc2ccccc2c1)NC[C@@H](O)COc1cccc(Cl)c1C#N the Potency was inconclusive: 26.2 µM [inhibitor, partial curve, poor fit].
For C[C@]12CCC3c4ccc(O)cc4CCC3C1CCC2=O (stereo not given in full), the Potency was “inactive”.
In the case of CC[C@@]1(O)C(=O)OCc2c1cc1n(c2=O)Cc2cc3cc(O)ccc3nc2-1, the Potency is reported as active: 3.3 µM.
In the case of CC1(C)Cc2c(-c3ccccc3)c(-c3ccc(Cl)cc3)c(CC(=O)O)n2C1, the Potency is reported as inconclusive: 33 µM [inhibitor, partial curve].
For O=c1c(O)c(-c2cc(O)c(O)c(O)c2)oc2cc(O)cc(O)c12, the Potency was “inactive”.
With CCOC(=O)C1=C(N)Oc2ccc(Br)cc2C1C(C#N)C(=O)OCC (stereo not given) the Potency was “inactive”.
With CC(C)(C)OC(=O)N[C@H]1CCCCCC=C[C@@H]2C[C@@]2(C(=O)NS(=O)(=O)C2CC2)NC(=O)[C@@H]2C[C@@H](OC(=O)N3Cc4cccc(F)c4C3)CN2C1=O the Potency was “inactive”.
With Cc1nc(Nc2ncc(C(=O)Nc3c(C)cccc3Cl)s2)cc(N2CCN(CCO)CC2)n1 the Potency was inconclusive: 0.0587 µM [inhibitor, full curve].
In the case of NCCCCCC(=O)O, the Potency is reported as “inactive”.
With NS(=O)(=O)c1ccc(NC2=CC(=O)c3ccccc3C2=O)cc1 the Potency was inconclusive: 1.65 µM [inhibitor, full curve].
With OC(c1cc(C(F)(F)F)nc2c(C(F)(F)F)cccc12)C1CCCCN1 (stereo not given) the Potency was inconclusive: 23.4 µM [inhibitor, partial curve, poor fit].
In the case of Cc1cc(C(=O)N2CCN(c3cccc(Cl)c3)CC2)n(-c2ccccc2)n1, the Potency is reported as inconclusive: 6.58 µM [inhibitor, full curve, poor fit].
